From patent US20070148124A1, “Cellulose and acrylic based polymers and the use thereof for the treatment of infectious diseases” (priority 2004, published 2007)

Tested on: cell-to-cell fusion mediated by HIV-1 envelope glycoprotein and CD4
Assay: microbe, parasite or virus in culture
Format: cell-based
Details: Human immunodeficiency virus 1

c1cc(CN2CCCNCCNCCCNCC2)ccc1CN1CCCNCCNCCCNCC1 [AMD 3100]
pIC50: 8.70 | IC90: 7 nM

pIC50: −log10 of the molar value.
